# “And” between values parts separate entries of the source, which are not always exact repeats. Equal entries are not always repeated. In all, about 220,000 compounds went through this assay and about 5,700 (2.6%) were called active. The shares of active, inactive and inconclusive entries below differ from those in the screen. Calls come from the whole dose curve; as a rule, active = well fitted inhibition curve with a large enough effect; inconclusive = small, poorly fitted or top-dose-only effect; inactive = no such curve, though single readings can be large or run the other way. A potency beside an inconclusive call is a rough fit, not a confirmed value.
# Target: Lysine-specific demethylase 5B (Homo sapiens) (UniProt Q9UGL1)
# Test: Primary screen for KDM5B Histone Demethylases FDH-coupled qHTS; note: nearly all actives have a fitted effect of over 70% in size; for activity change, negative = inhibition: 0% is about no effect
# Conditions: FDH-coupled NADH fluorescence (FDH is formaldehyde dehydrogenase); activity change, negative = inhibition: at 57.7 µM (top of the series) unless noted
# Procedure, shortened: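 Compound dilutions met 200 nM (final) KDM5BΔAP for 10 min at room temperature before substrate addition. The substrate mix held 12.5 µM H3K4me3 with cofactors 25 µM α-ketoglutarate and 50 µM Fe²⁺. NADH signal gain over 30 min defined activity.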
# Potency is the fitted concentration of half-maximal effect; tags give direction and shape of the fitted curve.
# Chain of UniProt Q9UGL1 (Q9UGL1 whole entry, looked up): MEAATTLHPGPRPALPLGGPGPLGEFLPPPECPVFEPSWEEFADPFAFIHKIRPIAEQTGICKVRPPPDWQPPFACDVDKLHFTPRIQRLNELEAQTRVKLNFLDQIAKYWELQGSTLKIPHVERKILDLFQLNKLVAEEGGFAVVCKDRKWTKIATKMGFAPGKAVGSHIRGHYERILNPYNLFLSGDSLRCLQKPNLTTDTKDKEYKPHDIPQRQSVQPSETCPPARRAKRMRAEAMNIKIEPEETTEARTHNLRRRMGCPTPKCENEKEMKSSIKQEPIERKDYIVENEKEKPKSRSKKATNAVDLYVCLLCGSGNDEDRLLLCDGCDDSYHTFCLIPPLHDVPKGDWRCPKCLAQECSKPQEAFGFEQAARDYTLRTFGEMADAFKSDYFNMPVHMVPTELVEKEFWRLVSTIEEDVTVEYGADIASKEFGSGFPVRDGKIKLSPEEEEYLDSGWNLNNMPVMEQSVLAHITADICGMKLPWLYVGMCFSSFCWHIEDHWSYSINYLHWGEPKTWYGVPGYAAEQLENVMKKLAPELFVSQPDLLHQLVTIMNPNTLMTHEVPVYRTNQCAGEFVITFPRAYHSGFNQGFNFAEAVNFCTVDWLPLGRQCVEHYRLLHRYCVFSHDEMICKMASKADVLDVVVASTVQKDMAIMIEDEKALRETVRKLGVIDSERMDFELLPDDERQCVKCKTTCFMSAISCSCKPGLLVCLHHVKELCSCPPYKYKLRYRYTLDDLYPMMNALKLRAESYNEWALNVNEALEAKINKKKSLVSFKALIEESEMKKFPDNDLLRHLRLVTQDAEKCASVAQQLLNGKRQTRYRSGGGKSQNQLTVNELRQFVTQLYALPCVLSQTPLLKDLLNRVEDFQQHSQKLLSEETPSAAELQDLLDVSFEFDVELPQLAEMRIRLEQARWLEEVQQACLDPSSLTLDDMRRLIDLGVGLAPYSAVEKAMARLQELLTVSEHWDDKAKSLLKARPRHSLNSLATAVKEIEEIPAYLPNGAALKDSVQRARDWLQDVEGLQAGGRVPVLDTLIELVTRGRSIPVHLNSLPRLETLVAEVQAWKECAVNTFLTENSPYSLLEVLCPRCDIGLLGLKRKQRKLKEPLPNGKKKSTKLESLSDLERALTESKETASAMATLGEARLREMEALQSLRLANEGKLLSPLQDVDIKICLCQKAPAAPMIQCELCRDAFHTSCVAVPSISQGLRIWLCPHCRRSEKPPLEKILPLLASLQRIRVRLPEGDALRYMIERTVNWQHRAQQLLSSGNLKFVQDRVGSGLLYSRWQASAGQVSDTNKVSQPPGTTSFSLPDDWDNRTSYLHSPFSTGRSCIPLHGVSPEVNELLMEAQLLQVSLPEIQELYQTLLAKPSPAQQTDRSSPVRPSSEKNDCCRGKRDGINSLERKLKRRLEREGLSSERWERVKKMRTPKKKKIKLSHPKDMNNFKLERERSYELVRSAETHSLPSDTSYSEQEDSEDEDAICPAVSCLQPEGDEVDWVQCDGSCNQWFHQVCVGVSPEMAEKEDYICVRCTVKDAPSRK
Structure (SMILES),Potency,"activity change, negative = inhibition"
CCOc1ccc(CC(=O)NCCc2sc(-c3cccc(F)c3)nc2C)cc1,"inconclusive: 35.5 µM [inhibitor, single point]",
COc1ccc(CN2CCc3nc(C4CC4)nc(-c4ccc(OC)cc4)c3CC2)cc1,"inconclusive: 56.2 µM [inhibitor, partial curve, poor fit]",
O=C(NNC(=O)c1cc2ccccc2cc1O)Nc1ccc(Br)cc1,"inconclusive: 14.1 µM [inhibitor, partial curve, poor fit]",
CCOc1cccc2sc(NC(=O)c3ccc(S(=O)(=O)N4CCCCC4)cc3)nc12,"inconclusive: 22.4 µM [inhibitor, partial curve, poor fit]",
Clc1cc(Cn2nnc(-c3ccccc3)n2)cc2c1OCCCO2,inactive,
O=C(N[C@@H]1CN(C2CCC2)C[C@H]1CO)c1cnccn1,inactive,
CC1CCCCN1Cc1c(O)ccc2c(=O)c(-c3ccc(Cl)cc3)coc12 (configuration not stated),"inconclusive: 31.6 µM [inhibitor, partial curve, poor fit]",
Cc1ccc(-n2nc(-c3c(C)nc4scc(CC(=O)Nc5ccc(F)cc5)n4c3=O)cc2C)cc1,active: 28.2 µM,
C=CCN1CC2(CCC1=O)CCN(Cc1cccc(C#N)c1)CC2,"inconclusive: 6.31 µM [inhibitor, single point]",
CCOc1ccccc1CN1CCC2(CCN(C(=O)c3ccc(Cl)nc3)CC2)Oc2ccccc21,"inconclusive: 22.4 µM [inhibitor, partial curve, poor fit]",
COc1ccc(/C=C/c2ccc3c(c2)C(=O)N2C[C@@H](NC(=O)c4cccn4C)C[C@H]2C(=O)N3)cc1,"inconclusive: 22.4 µM [inhibitor, partial curve]",
Cc1ccc(CCNC(=O)C(C)n2nc(C)c3c(C)n(-c4ccc(C)cc4)nc3c2=O)cc1 (configuration not stated),,inconclusive: -31.9% [inhibitor]
Cc1cc(=O)oc2cc(NC(=O)Cc3ccc(Cl)cc3)ccc12,"inconclusive: 15.8 µM [inhibitor, partial curve, poor fit]",
Cc1ccccc1OCC(=O)Nc1ccc2[nH]c(=O)sc2c1,"inconclusive: 4.47 µM [inhibitor, partial curve, poor fit]",
CCOC(=O)N1CCC(NC(=O)c2ccc3c(c2)N(Cc2ccc(F)cc2)C(=O)c2ccccc2S3=O)CC1 (configuration not stated),,inconclusive: -31.4% [inhibitor]
COc1ccc(Nc2cc3c(cn2)NCCN(Cc2ccccc2)C3)cn1,"inconclusive: 28.2 µM [inhibitor, partial curve, poor fit]",
COc1cc(/C=N/NC(=O)c2cc(-c3cccc(OC(C)C)c3)nc3ccccc23)ccc1O,"inconclusive: 35.5 µM [inhibitor, single point]",
O=C(C1CCC1)N1CCCC1c1nc(C2CCOCC2)no1 (configuration not stated),"inconclusive: 39.8 µM [inhibitor, single point]",
Cc1ccc(C)c(C(O)Cn2ccn3nc(-c4cccc(Br)c4)cc3c2=O)c1 (configuration not stated),active: 31.6 µM,
COc1cc(OC)cc(-c2nc3nc(C)c(CCC(=O)Nc4ccccc4)c(C)n3n2)c1,"inconclusive: 0.891 µM [inhibitor, full curve, poor fit]",
O=C(CCc1ccccc1)OCC(=O)c1ccc2c(c1)OCCCO2,inactive,

Structure (SMILES),Potency,"activity change, negative = inhibition"
CC(=O)c1ccc(N2CCN(C(=O)Nc3cn(CC(C)C)c(=O)c4ccccc34)CC2)cc1,"inconclusive: 25.1 µM [inhibitor, partial curve, poor fit]",
Cc1ccccc1C(=O)NC1CCN(c2cc(-c3ccccc3)[nH]n2)C1 (configuration not stated),"inconclusive: 3.16 µM [inhibitor, full curve, poor fit]",
CCOC(=O)C1CCN(S(=O)(=O)c2cc(-c3cc(C)no3)ccc2OC)CC1,"inconclusive: 17.8 µM [inhibitor, partial curve, poor fit]",
N#Cc1ccccc1OCCN1CCc2ccccc2C1,"inconclusive: 22.4 µM [inhibitor, single point]",
O=C(Cc1cccc(Cl)c1)NC1CCN(c2nc3ncccc3o2)CC1,"inconclusive: 25.1 µM [inhibitor, single point] and inconclusive: 20 µM [inhibitor, partial curve, poor fit]",
O=C(NCc1ccc(Cl)cc1)c1noc(-c2ccc3c(c2)OCO3)n1,"inconclusive: 31.6 µM [inhibitor, single point]",
COCC1CCN(Cc2cc3ccc(OC)cc3nc2-c2cccc(C)c2)C1 (configuration not stated),"inconclusive: 28.2 µM [inhibitor, partial curve, poor fit]",
CC(=O)c1ccc(NC(=O)COc2ccccc2-c2nc(C(C)C)no2)cc1,inactive,
Cc1occc1C(=O)Nc1ccc(SC2CCCC2)cc1,inactive,
Cc1ccc(S(=O)(=O)Nc2nc3ccccc3nc2NC2CCCCC2)cc1,"inconclusive: 39.8 µM [inhibitor, single point]",
COc1cccc(C2C=C(c3ccc(C)cc3)Nc3ncnn32)c1 (configuration not stated),"inconclusive: 25.1 µM [inhibitor, partial curve, poor fit]",
CCOc1ccc(-c2nc(CS(=O)Cc3cc(C)ccc3C)cs2)cc1OC (configuration not stated),"inconclusive: 10 µM [inhibitor, partial curve, poor fit]",
COc1ccc(Cl)cc1NC(=O)CCC1CCCN(C(=O)CCc2c(C)noc2C)C1 (configuration not stated),"inconclusive: 8.91 µM [inhibitor, single point]",
COc1cccc(-c2cn3c(n2)NCCC3)c1,active: 25.1 µM,
O=C(Cn1nc2n(c1=O)CCCC2)Nc1ccc2c(c1)OCO2,inactive,
COCC1CN(C2CCC2)CC12CCN(C(=O)c1ccccc1OC)CC2 (configuration not stated),"inconclusive: 17.8 µM [inhibitor, single point]",
O=C1/C(=C/c2cccnc2)Cc2c(Cl)cccc21,inactive,
CN(C)C[C@@H]1CN(C2CCOCC2)C[C@H]1NC(=O)Cc1ccc(F)cc1,"inconclusive: 15.8 µM [inhibitor, partial curve, poor fit]",
COCCNc1cc(-c2noc([C@@H]3CCCN3C3CCN(C(C)=O)CC3)n2)ccn1,active: 39.8 µM,
O=C(Nc1cc(C(F)(F)F)ccc1Cl)c1cc(S(=O)(=O)NCc2ccccc2)ccc1F,"inconclusive: 28.2 µM [inhibitor, single point]",
Cc1cccc(OCc2ccc(-c3nc(C#N)c(N4CCC(C(N)=O)CC4)o3)o2)c1,"inconclusive: 31.6 µM [inhibitor, partial curve, poor fit] and inconclusive: 22.4 µM [inhibitor, partial curve, poor fit]",

Structure (SMILES),Potency,"activity change, negative = inhibition"
O=C(Nc1nc2ccccc2[nH]1)c1ccc[n+]([O-])c1,inactive,
Cc1noc(/C=C/c2ccco2)c1S(=O)(=O)N1CCC(C(=O)Nc2ccc(F)cc2F)CC1,"inconclusive: 1.12 µM [inhibitor, full curve, poor fit]",
N#Cc1nc(-c2ccco2)oc1N1CCN(C(=O)NC2CC2)CC1,"inconclusive: 25.1 µM [inhibitor, partial curve, poor fit]",
CCC(=O)N1CCC2(CC1)NCCc1c2[nH]c2ccc(OC)cc12,"inconclusive: 28.2 µM [inhibitor, single point]",
Cc1ccc2c(c1)-c1c(c(C(=O)NCc3ccc(F)cc3)nn1C)CS2,inactive,
O=C(NCCC1=CCCCC1)c1ccc(N2CC3CC(C2)[C@H]2CCCC(=O)N2C3)nc1 (some centres not stated),"inconclusive: 28.2 µM [inhibitor, partial curve, poor fit]",
Cc1[nH]cnc1CN1CCCC(c2nnc(CN3CCC(O)CC3)n2C)C1 (configuration not stated),"inconclusive: 1.26 µM [inhibitor, full curve, poor fit]",
O=C(CCc1nnn2c1CN(C(=O)Cc1c[nH]c3ccccc13)CC2)N1CCCC1,"inconclusive: 11.2 µM [inhibitor, partial curve]",
Cc1ccc(-c2cc(C(=O)NCc3ccccn3)c3ccccc3n2)cc1,"inconclusive: 25.1 µM [inhibitor, partial curve, poor fit]",
COCc1ccc(C(=O)N2CCc3[nH]nc(-c4ccccc4F)c3C2)s1,inactive,
CCCn1nc(C(=O)Nc2ccc(S(=O)(=O)C(F)F)cc2)c2ccccc2c1=O,"inconclusive: 28.2 µM [inhibitor, single point]",
CCOc1cc(C(=O)Nc2ccc3oc(-c4ccc(CC)cc4)nc3c2)cc(OCC)c1OCC,"inconclusive: 3.16 µM [inhibitor, partial curve, poor fit]",
Cc1c(C)c2ccc(OCC(=O)NCc3ccccn3)cc2oc1=O,"inconclusive: 8.91 µM [inhibitor, partial curve, poor fit]",
CSc1ccc(Cl)c(C(=O)NCCCn2ccnc2)c1,inactive,
COc1ccccc1CCNC(=O)CCn1c(=O)c2cccn2c2ccc(F)cc21,"inconclusive: 39.8 µM [inhibitor, single point]",
COc1ccc(CCNC(=O)CCc2c(C)nc3cc(-c4ccccc4)nn3c2C)cc1OC,"inconclusive: 5.62 µM [inhibitor, partial curve, poor fit]",
O=C(CSc1nc(Cl)nc2nc[nH]c12)NCCc1c[nH]c2ccccc12,inactive,
CCN(CC)C(=O)CC[C@@H]1CNC(=O)[C@@H]2C[C@H](NCc3ccc(F)cc3)CN12,"inconclusive: 35.5 µM [inhibitor, single point]",
CNC(=O)c1cc(-c2ccccc2OC)cc2c1OCCN2Cc1cccnc1,active: 28.2 µM,
COc1ccc(OC)c(CCNC(=O)c2cc3c(-c4ccccc4F)nn(C)c3s2)c1,"inconclusive: 35.5 µM [inhibitor, partial curve, poor fit]",
